Here are results for 14 molecules from PMC12136788.

The other results are listed elsewhere or left out.

B1: chr16:94664741:94664742:+_ENSMUSG00000040785_ENSMUST00000117648|mus_hu|mus_mus_mus_hu_False|48_58 (ssRNA)
RNA: GGGAGUUCUACAGUCCGACGAUCUGGUACUGAUCUUGGUAGCUGAUAUUCAGGAGAAAGGCUGGCCAAGGGUGUAUAAAUGCUAGUGAACUGCGACAAACCUGGUAACACGUUUAUGUAUGCUGGCGGUGUCUGGGUGAUAUCCAACAGAGGAUUGAGCAUCA
B2: chr11:23509083:23509084:-_ENSMUSG00000042208_ENSMUST00000043356|mus_hu|motif|central (ssRNA)
RNA: GGGAGUUCUACAGUCCGACGAUCUGUUCCCCACAAUCGCCAGUAUACAUCUCUCCAAGAUUUUAAUUCUUCGAAAAGACGGUUCAAAUACUCAUGAACAUCCCAUGUCUUAUCUCUUAUGUGAAUAUAGACAAUAUUUCCACGCAACAGAGGAUUGAGCAUCA
B3: chr2:61705333:61705334:-_ENSG00000082898_ENST00000401558|hu_mus|motif|central (ssRNA)
RNA: GGGAGUUCUACAGUCCGACGAUCUCGACAAGCGACAGCACACACACACACACACAAACAAAAAGAACUGUGUAAAAAUAACGGACUGUUCCCAUAUUUUUGAAGUUGCUUUACAAUGGGAUGAUAUGCACAUGAUCUUGCUGCCAACAGAGGAUUGAGCAUCA
B4: chr19:60949100:60949101:-_ENSMUSG00000024997_ENSMUST00000025961|mus_mus|motif|central (ssRNA)
RNA: GGGAGUUCUACAGUCCGACGAUCGGCAGAGGCAGACCACAGUAUGUCUGUCAAACAGGUUCUUCUAGAAGCAACAGGCCGGAGAACUGUUGAGGCAGAAAUACUCCGGGAAAUAGCACUUGCAUGACGAGCAACCGAGGACCACAACAGAGGAUUGAGCAUCA
B5: chr16:57283700:57283701:+_ENSG00000102931_ENST00000219204|hu_hu|FALSE|FALSE (ssRNA)
RNA: GGGAGUUCUACAGUCCGACGAUCUGUGGUGAAGGCUGCCAUGUUGAACUCAGGAAUCCGCUGCAGCAGCUGUUCUUCAAUGUAUUUUUCUACCAAAGAAAUGUAUUCAUUAAAAAUAGGUGUGUAGAUGAGUUUAUUCUCUUCCAACAGAGGAUUGAGCAUCA
B6: chrX:35795285:35795286:-_ENSMUSG00000016534_ENSMUST00000061755|mus_mus|motif|central (ssRNA)
RNA: GGGAGUUCUACAGUCCGACGAUCGAAAUUCAUCUCCCAUUCUGCAUAAAGGCAAGUACCCUUUGAAUCUGUCAAAUUAACGGUCAAUGCAUUGGACUGAACGGCUCCUAGGAACAGAAAGAUCAGGAUGAGCUUUGCGCCUUUCAACAGAGGAUUGAGCAUCA
B7: chr2:47387770:47387771:-_ENSG00000143933_ENST00000272298|hu_mus|hu_hu_hu_mus_True|1_8 (ssRNA)
RNA: GGGAGUUCUACAGUCCGACGAUCAAGGUUUAAGGACAAUGACAGUAAGAUAAGGGAAGAAAACAUGGAGGAAUGAAGUCCUAAUUACUAUACAUGCAUAUUUUUUGACAGUAGGGGGGGGGAACCUUACAGAUAAGUUACAAACAACAGAGGAUUGAGCAUCA
B8: chr8:42798479:42798480:+_ENSG00000168172_ENST00000307602|hu_hu|FALSE|FALSE (ssRNA)
RNA: GGGAGUUCUACAGUCCGACGAUCAGAAUGCUCCCCAAUAAGGUUCACAUCAGGAAGGGUAAAGUCAUUAAUUUGCUGUCCUAAAAUCUCAUGAUUAUAAUCCAAGAUUCCUUUUAAAAUUUUCUUUAAAUUGCUUAUCUUUAGCAACAGAGGAUUGAGCAUCA
B9: 2203353_2203473_684_CDS_ENSG00000070366_ENST00000263073|human|control|control (ssRNA)
RNA: GGGAGUUCUACAGUCCGACGAUCGUCGUGGGUUUCCCUCACCCCCUCCCCUUUUCCCAUCCUCUUUCCUUUUUCUCCUUUUGCAGCCCCUACUCUCCCACCACCUGGGCUCUUUUCUAUCUCAGCCCUGUCUGGUUUAUUCGCCAACAGAGGAUUGAGCAUCA
B10: chr11:4749296:4749297:-_ENSMUSG00000009073_ENSMUST00000109910|mus_hu|motif|central (ssRNA)
RNA: GGGAGUUCUACAGUCCGACGAUCGCGACCCGGCACUCCGGGAUUCGGGCCGGAGAUGCCGGGGACGCCUCGGGACGGGACCCCGGGACGGCAGCGGCCCAGACUCCGCGCGCCUCUCAGCGGCCGACUAGGGUCACGGGGCCGCAACAGAGGAUUGAGCAUCA
B11: chr19:16212804:16212805:+_ENSG00000167460_ENST00000300933|hu_mus|hu_hu_hu_mus_False|1_8 (ssRNA)
RNA: GGGAGUUCUACAGUCCGACGAUCAACAAUUCUGGAGUGAAGGAAAGAUGUAACAUGGAACAGCAUUAAAGCUCAGUCAGAAGGCACAUGGGCAACAAUGAUCACCCCAGCAUUCUCGCUUGGAAUGUGCUUGAGAAGAUGUUUCAACAGAGGAUUGAGCAUCA
B12: chr16:4561903:4561904:-_ENSG00000089486_ENST00000567695|hu_hu|FALSE|FALSE (ssRNA)
RNA: GGGAGUUCUACAGUCCGACGAUCAGGCAUGGCCUGAAAGGGGGUCUGCACACUGACUCAAAGGGACAAGUUCCUUCUUAGCUACCAGGGUCUGAUCAUUCACCCAGGUACAGUGUCCUCUCUACCUGACACCAGGCAGCUCUCCAACAGAGGAUUGAGCAUCA
B13: 58473186_58473306_2931_ncRNA_ENSMUSG00000026034_ENSMUST00000129577|mouse|control|control (ssRNA)
RNA: GGGAGUUCUACAGUCCGACGAUCAUUGGGCUGCAUUACAGAUGGUUGUGAGCCACCAUGUGGUUGCUGGGAUUUGAACUCAGGGCCUCUGGAAGAGCAGUCAGUGCUCUUAACCGCUAAGAGAUGUCUCCAGCCCACAAGUCUCAACAGAGGAUUGAGCAUCA
B14: 23548034_23548154_1982_CDS_ENSG00000100813_ENST00000605057|human|control|control (ssRNA)
RNA: GGGAGUUCUACAGUCCGACGAUCAGGCUGUAACCUCUGGGUCACAUGCUUUUCAGCUGAUUCAGGCUGACUCAGACGCCUUGCUUGGACAGAGGAUGAGGAGGUGGAAGUCCUCUCCUUUGGCUCACAGACCUGCAGUUGUGGCAACAGAGGAUUGAGCAUCA

The target of the experiment is T1, UNK ZnF1-3 (human, UniProt Q9C0B0 31-174).
T1 sequence: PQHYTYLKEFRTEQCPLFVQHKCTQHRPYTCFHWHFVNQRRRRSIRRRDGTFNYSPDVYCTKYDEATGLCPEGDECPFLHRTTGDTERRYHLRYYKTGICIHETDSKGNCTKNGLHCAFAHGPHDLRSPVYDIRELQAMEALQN
The experiment can be described thus: nsRBNS (natural sequence RNA bind-n-seq); RBNS binding buffer (assumed for nsRBNS): 25 mM Tris pH 7.5, 150 mM KCl, 3 mM MgCl2, 0.01% Triton X-100, 500 ug/ml BSA, 20 U/ml SUPERase-In, 4 C; UNK is unkempt and MSI1 is Musashi-1; names of the RNAs are library labels; protein concentration not given here; high values mean tight binding.
B1 gave a binding signal of 1.08 enrichment R.

For the molecule B2, the binding signal came to 1.12 enrichment R.

In turn, B3 came in with a binding signal of 0.945 enrichment R.

Take B4: the binding signal worked out at 1.5 enrichment R.

With B5, the binding signal came to 1.02 enrichment R.

On to B6, for which the binding signal came out at 1.11 enrichment R.

In turn, B7 gave a binding signal of 2.3 enrichment R.

The molecule B8 came in with a binding signal of 1.45 enrichment R.

As to B9, the binding signal was found to be 0.426 enrichment R.

B10 showed a binding signal of 0.571 enrichment R.

As to B11, the binding signal amounted to 1.5 enrichment R.

In turn, B12 gave a binding signal of 0.805 enrichment R.

Regarding B13, the binding signal was 0.945 enrichment R.

Take B14: the binding signal was found to be 0.438 enrichment R.
